Data from PubChem BioAssay AID488969 (Vanderbilt High Throughput Screening Facility, 2010).
The full ranking holds about 110,000 compounds; the median of “z-score” is about -0.1, and the highest 2% start at about 2. The list shows a part of the results. Activity calls are given as the source filed them.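 How the source made its calls: active means z-score in the third read window above 3 or below -3; inactive means the rest.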

The compounds below were run against Metabotropic glutamate receptor 8 (Rattus norvegicus) (UniProt P70579) (assay: rat mGluR8 modulators via GIRK flux, primary screen, cell-based, thallium flux, HTS (AID 488969)). Conditions: HEK293 rat mGluR8, GIRK (G protein-gated inwardly rectifying potassium channel) thallium flux, FluoZin2; at 10 µM; stronger effect = higher value; submaximal glutamate (EC20) added with thallium.
Chain of UniProt P70579 (P70579 whole entry, looked up): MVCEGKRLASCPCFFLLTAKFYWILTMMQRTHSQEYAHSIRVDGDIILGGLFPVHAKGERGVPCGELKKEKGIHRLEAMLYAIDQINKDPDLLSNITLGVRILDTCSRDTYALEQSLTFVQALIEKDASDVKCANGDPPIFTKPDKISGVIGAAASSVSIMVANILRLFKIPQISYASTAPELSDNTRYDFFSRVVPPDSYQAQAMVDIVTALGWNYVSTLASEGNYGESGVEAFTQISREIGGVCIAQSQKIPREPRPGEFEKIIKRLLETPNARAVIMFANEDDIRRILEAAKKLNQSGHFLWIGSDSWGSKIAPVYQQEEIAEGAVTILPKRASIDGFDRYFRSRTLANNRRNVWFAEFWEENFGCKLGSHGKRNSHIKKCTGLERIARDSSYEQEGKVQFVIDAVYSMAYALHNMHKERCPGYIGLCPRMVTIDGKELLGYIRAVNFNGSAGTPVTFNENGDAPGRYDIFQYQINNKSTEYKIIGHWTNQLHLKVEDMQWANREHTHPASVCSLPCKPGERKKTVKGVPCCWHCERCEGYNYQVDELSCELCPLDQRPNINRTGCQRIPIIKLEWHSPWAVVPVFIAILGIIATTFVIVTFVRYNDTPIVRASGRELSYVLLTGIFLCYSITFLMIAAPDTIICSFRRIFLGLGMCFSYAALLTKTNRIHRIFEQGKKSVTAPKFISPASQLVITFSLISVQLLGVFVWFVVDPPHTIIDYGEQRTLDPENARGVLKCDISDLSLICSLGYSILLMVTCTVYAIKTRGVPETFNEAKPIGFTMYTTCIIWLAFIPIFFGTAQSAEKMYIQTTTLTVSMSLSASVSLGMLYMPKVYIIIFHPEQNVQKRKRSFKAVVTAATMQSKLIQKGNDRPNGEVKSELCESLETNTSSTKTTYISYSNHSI

Row | SMILES | z-score
1 | CCC(=O)NC(=S)NNC(=O)c1ccc([N+](=O)[O-])cc1 | 0.17
2 | FC(F)(F)c1cccc(CNc2ncccc2-c2nc3cc(Cl)ccc3o2)c1 | -0.967
3 | C=CCNC(=S)N/N=C(\C)c1ccccn1 | 0.458
4 | CCOCCCNC(=O)C(NC(=O)CC1NC(=O)NC1=O)c1ccc(Cl)cc1 (configuration not stated) | -0.134
5 | COc1ccc(CNC(=O)C2CC(c3cccc([N+](=O)[O-])c3)=NO2)cc1 (configuration not stated) | -0.232
6 | CCOc1ccc(S(=O)(=O)Nc2ccccc2C(=O)NCc2ccco2)cc1 | -0.0697
7 | COC(=O)c1c(C(=O)OC)c(-c2ccccc2)n2c1CS(=O)C2 (configuration not stated) | -0.0256
8 | COCCn1c(=NC(=O)c2ccc3c(c2)OCO3)c(C#N)cc2c(=O)n3cccc(C)c3nc21 | -0.381
9 | COc1ccc(N2C(=O)C3ON(C4SC(=S)N(C)C4(C)C)C(c4ccc([N+](=O)[O-])cc4)C3C2=O)cc1 (configuration not stated) | 0.0385
10 | O=C(CSc1nc(O)c(Cc2ccccc2)c(=O)n1-c1ccccc1)N1CCOCC1 | -0.384
11 | COC(=O)CN1C(=O)C(O)(CC(=O)c2cccc(Br)c2)c2ccccc21 (configuration not stated) | -0.712
12 | Cc1ccccc1N1CCN(c2ncnc3c2cnn3Cc2ccc(Cl)cc2)CC1 | -0.365
13 | O=C(COc1ccccc1)NCCn1ccc2ccccc21 | 0.194
14 | CC(=O)C1=C(C)NC(=O)NC1c1cccs1 (configuration not stated) | 0.13
15 | CCOc1ccc(S(=O)(=O)NN)cc1 | 0.289
16 | COCCCNC(=O)CN(c1cccc(Cl)c1C)S(C)(=O)=O | -0.42
17 | Cc1ccccc1C(=O)Nc1ccc(S(=O)(=O)N2CCN(C)CC2)cc1 | 0.151
18 | O=C(Nc1ccccc1)/C(=C\c1cccs1)NC(=O)c1ccccc1 | 0.0528
19 | CC(C)Oc1ccc(C(=O)O)c(C(=O)O)c1 | -0.253
20 | Cc1ccc(OP(=O)(Nc2c(C)n(C)n(-c3ccccc3)c2=O)Oc2ccc(C)cc2)cc1 | -0.0249
21 | COc1cc(NC(=S)NC(=O)CC(C)C)ccc1NC(=O)c1cc2ccccc2o1 | -0.173
22 | NC(=O)c1ccc(C23CC4CC(CC(C4)C2)C3)o1 | 0.63
23 | O=C(CSc1ccc2c(c1)OCCO2)NCc1ccco1 | -0.187

Row | SMILES | z-score
24 | CN1CCN(C(=O)c2ccc3c(=O)n(Cc4ccco4)c(=S)[nH]c3c2)CC1 | 0.757
25 | NC(=O)Nc1cccc2ccccc12 | active: 4.53
26 | N#Cc1c(-c2ccccc2)cc(-c2ccccc2)nc1Br | -0.0927
27 | CS(=O)(=O)N(CC(=O)Nc1ccc(C(N)=O)cc1)C1CCCCC1 | 1.83
28 | CCOc1ccc(S(=O)(=O)NCCCN2CCOCC2)c2ccccc12 | -0.107
29 | CCN(CC)S(=O)(=O)c1ccc2c(c1)nc(SCC(N)=O)n2-c1ccc(OC)cc1 | -0.217
30 | O=C(CCCCn1c(=O)c2ccccc2n(CC(=O)NC2CCCC2)c1=O)NCc1ccco1 | -2.63
31 | CCc1nc2ccc(C)cc2c(C(=O)NC2CCCCC2C)c1C (configuration not stated) | -0.15
32 | CCONC(=NC)c1nonc1N | 0.00929
33 | O=C1CCCC/C1=C\Nc1ccc(O)cc1 | -0.274
34 | Cc1ccc(SCCC(=O)Nc2ccccc2C(=O)N2CCOCC2)cc1 | -0.0515
35 | Cc1cccc([N+](=O)[O-])c1NC(=O)CN(Cc1ccccc1)Cc1ccccc1 | 0.0209
36 | CC(COC(=O)c1ccccc1)(COC(=O)c1ccccc1)/[N+]([O-])=C/c1ccccc1 | 0.278
37 | COC(=O)c1c(C)[nH]c(C)c1-c1ccccc1Cl | -0.649
38 | Cc1ccc(C2(O)CN(c3ccccc3C)C3=[N+]2CCS3)cc1 (configuration not stated) | -0.263
39 | CCOc1ccc(Br)cc1S(=O)(=O)Nc1ccc(NC(=O)c2ccccc2C)cc1 | 0.0175
40 | COc1ccc(OC)c(/C=N/NC(=O)CNC(=O)c2ccc(S(=O)(=O)N3CCOCC3)cc2)c1 | -0.0737
41 | CN(C)CCCN=Cc1c(O)n(Cc2ccccc2)c(=O)c2ccccc12 | 1.02
42 | CCSC1=C(C#N)C(c2ccc3c(c2)OCO3)C2=C(CCCC2=O)N1 (configuration not stated) | 0.00991
43 | CCCCN(C(=S)NC(=O)c1ccccc1)c1c(N)n(Cc2ccccc2)c(=O)[nH]c1=O | 0.0917
44 | CCc1nc(-c2ccccc2O)n(-c2ccccc2)n1 | 0.592
45 | CC(C)(C)c1cc(C(C)(C)C)cc(S(=O)(=O)CCc2ccccn2)c1 | -0.26
46 | CCCCN1CC(C(=O)NCc2ccc(C)cc2)CC1=O (configuration not stated) | -0.238

Row | SMILES | z-score
47 | Cc1ccc(S(=O)(=O)NCC(=O)NC2CCCC2)cc1 | 0.347
48 | C/C(=N\Nc1nc(C)cc(-c2ccccc2)n1)c1ccc(C)o1 | 0.868
49 | O=C(c1cccc(S(=O)(=O)N2CCCC2)c1)N1CCN(c2ccccc2)CC1 | -0.141
50 | CC(=O)Nc1ccc(NC(=O)CSc2ncnn2-c2ccccc2)cc1 | -0.475
51 | CC1CCN(c2c([N+](=O)[O-])nn(-c3ccc4c(c3)OCCO4)[n+]2[O-])CC1 | -1.02
52 | COc1cccc(/C=C2/SC(=O)N(CC(=O)N3CCc4ccccc4C3)C2=O)c1OCC(=O)O | -0.567
53 | CC1CCCCC1NC(=O)Cn1ncc2ccccc21 (configuration not stated) | -0.159
54 | CC1CCc2c(C(=O)OCC(=O)Nc3cccc(S(=O)(=O)N4CCCCCC4)c3)csc2C1 (configuration not stated) | -0.197
55 | O=C(Nc1nc(-c2ccccc2)cs1)c1cccc(S(=O)(=O)N2CCN(Cc3ccccc3)CC2)c1 | -1.01
56 | Cc1ccc(Oc2ccc(Cl)cc2NC(=O)c2cnccn2)cc1 | -0.112
57 | CCCn1c(SCC(=O)N2CCN(c3ccccc3)CC2)nc2ccccc2c1=O | -0.496
58 | CCOC(=O)CSc1nnc(-c2ccc(S(=O)(=O)N3CCOCC3)cc2)n1-c1ccccc1 | -0.721
59 | O=S(=O)(NCC(c1cccnc1)N1CCN(c2ccccc2)CC1)c1cc(F)ccc1F (configuration not stated) | -0.321
60 | CCOC(=O)c1cc2c(=O)n3ccccc3nc2n(CC2CCCO2)c1=NC(C)=O (configuration not stated) | 0.259
61 | CC(=O)Nc1ccc(C(=O)N(C)C(C(=O)Nc2ccc(C)cc2)c2ccccn2)cc1 (configuration not stated) | -0.326
62 | C=CCn1c(SCC(=O)Nc2ncc(Cc3cc(C(F)(F)F)ccc3Cl)s2)nnc1-c1ccncc1 | -0.424
63 | CCc1nc2ccccc2n1CC(=O)N(C(C)CC)C1CCS(=O)(=O)C1 (configuration not stated) | 0.248
64 | O=C(CN1C(=O)/C(=C2\SC(=S)N(C3CCS(=O)(=O)C3)C2=O)c2ccccc21)Nc1ccccc1 (configuration not stated) | -0.491
65 | CCC(CC)c1nnc(NC(=O)c2cc([N+](=O)[O-])ccc2N2CCCCC2)s1 | -0.059
66 | CCC(C)c1ccc(NC(=S)NN2CCOCC2)cc1 (configuration not stated) | -0.131
67 | COC(=O)c1cc(-c2cccc(OC)c2)n[nH]1 | -0.426
